The whole screen tested about 350,000 compounds, of which about 260 (0.074%) were called active. The shares of active, inactive and inconclusive entries below differ from those in the screen. The call rests on the fitted dose curve; in most records, active means well fitted inhibition curve with a large enough effect; inconclusive means small, poorly fitted or top-dose-only effect; inactive means no such curve, though single readings can be large or run the other way. Where the call is inconclusive, the potency comes from a doubtful curve fit.
target: Ferritin light chain (Equus caballus) (UniProt P02791); assay: qHTS Assay for Identification of Novel General Anesthetics; details: apoferritin/1-aminoanthracene competitive binding, fluorescence; activity change, negative = displacement: at 77.5 µM (top of the series); further: nearly all actives have a fitted effect of over 20% in size
In short: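 Horse-spleen apoferritin (10 uM) in 50% saturated 1-aminoanthracene in PBS was incubated 10 min at room temperature with compound. Fluorescence (ex 380, em 535 nm) was normalized to free and bound 1-AMA, with concentration-response fitted by a four-parameter Hill equation.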
On the % scale 0 is the no-effect control and ±100 the full control effect; potency means the concentration at half of the fitted maximal effect; tags describe the fitted curve by direction and shape.

UniProt P02791, sequence (P02791 whole entry, looked up): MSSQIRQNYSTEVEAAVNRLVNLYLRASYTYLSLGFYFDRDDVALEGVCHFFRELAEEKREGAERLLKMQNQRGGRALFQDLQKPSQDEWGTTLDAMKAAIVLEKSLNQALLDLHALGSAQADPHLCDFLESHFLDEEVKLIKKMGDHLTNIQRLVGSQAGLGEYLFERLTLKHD

SMILES | Potency | activity change, negative = displacement
Cc1ccc(C(=O)CSc2nnnn2-c2ccccc2)o1 | inconclusive: 25.1 µM [inhibitor, single point] | –
O=C(NCCCN1CCN(c2ccc(F)cc2)CC1)c1cc2c(s1)-c1ccccc1OC2 | – | inactive: 92.3%
COCCN1C(=O)Cc2c1nc(N)c1c(N)nc(N3CCN(c4ccc(F)cc4)CC3)c(C#N)c21 | inconclusive: 25.1 µM [inhibitor, partial curve] | –
CCN1C(=O)/C(=C\c2cccs2)C(C(=O)OC)=C1C | inconclusive: 1.26 µM [inhibitor, full curve, poor fit] | –
CCN(CC)CCOC(=O)c1ccc(NC(=O)c2nn(-c3ccc(C)cc3)c(=O)c3c2c2ccccc2n3C)cc1 | inconclusive: 39.8 µM [inhibitor, partial curve] | –
COc1ccc(/C(O)=C2/C(=O)C(=O)N(Cc3ccco3)C2c2cccs2)cc1 (configuration not stated) | – | inactive: -6.05%
CCN(CC)c1ccc(/C=N/Nc2ccc(C)cc2)c(O)c1 | – | inactive: -6.36%
O=C1CC(c2ccccc2)CC(O)=C1C=NC1CCCCCC1 (configuration not stated) | inconclusive: 15.8 µM [inhibitor, partial curve] | –
Cc1cc(N2CCC(C)CC2)nc(SCC(=O)c2ccccc2)n1 | inconclusive: 35.5 µM [inhibitor, single point] | –
CC(=O)c1cccc(N2C(=NC(=O)CCc3ccccc3)SC3CS(=O)(=O)CC32)c1 (configuration not stated) | – | inactive: -11.9%
CCOC(=O)c1c(SC)n(-c2ccccc2)c(=S)n(-c2ccccc2)c1=O | – | inactive: 1.8%
COc1ccc(Cn2nnc3c(=O)[nH]c(C4CCCN(C(=O)c5ccccc5Cl)C4)nc32)cc1OC (configuration not stated) | inconclusive: 22.4 µM [inhibitor, partial curve] | –
Cc1cccc(C)c1-n1c(C)cc(/C=N/NC(=O)c2ccncc2)c1C | inconclusive: 25.1 µM [inhibitor, partial curve] | –
O=C(CNc1cccc2ccccc12)N/N=C/c1ccc([N+](=O)[O-])o1 | inconclusive: 35.5 µM [inhibitor, single point] | –
O=C(c1cn(-c2ccccc2)nc1-c1ccncc1)N1CCCCC1 | – | inactive: -8.27%
Cc1cccc(-n2nc([N+](=O)[O-])c(=NCc3cccnc3)n2O)c1 | – | inactive: -14.5%
c1ccc(Nc2scc(-c3ccccc3)[n+]2Cc2ccco2)cc1 | inconclusive: 35.5 µM [inhibitor, partial curve] | –
C=CCc1cccc2cc(C(=O)NCc3ccc(C(=O)OCC)o3)c(=O)oc12 | inconclusive: 15.8 µM [inhibitor, partial curve] | –
COc1cccc(/C=N/NC(=O)COc2cccc3cccnc23)c1O | inconclusive: 17.8 µM [inhibitor, partial curve] | –
O=C(COC(=O)[C@@H]1CCCN1S(=O)(=O)c1ccc(Cl)cc1)NC12CC3CC(CC(C3)C1)C2 | inconclusive: 44.7 µM [inhibitor, partial curve] | –
CCCCOc1ccc(S(=O)(=O)Nc2cccc(-c3ccc(N4CCOCC4)nn3)c2)cc1 | inconclusive: 35.5 µM [inhibitor, partial curve] | –
c1ccc(-c2nnc(-c3c[nH]c4ccccc34)nc2-c2ccccc2)cc1 | – | inactive: -20.6%
CCc1ccc(Nc2nnc(SCC(=O)c3ccc4c(c3)NC(=O)CO4)s2)cc1 | inconclusive: 15.8 µM [inhibitor, partial curve] | –

SMILES | Potency | activity change, negative = displacement
Cc1ccc(NNC(=O)c2cc(C(C)(C)C)nn2Cc2ccccc2)cc1 | – | inactive: -17.8%
CC(=O)N1N=C(c2cccc([N+](=O)[O-])c2)OC1c1ccc(Cl)cc1Cl (configuration not stated) | inconclusive: 35.5 µM [inhibitor, partial curve] | –
Cc1[nH]c2ccccc2c1C(=O)CN1C(=O)C(=O)N(C2CCCC2)C1=O | inconclusive: 10 µM [inhibitor, partial curve] | –
O=C(CSc1ccc(Cl)cc1)c1ccco1 | inconclusive: 28.2 µM [inhibitor, partial curve] | –
Cc1ccc(CSc2nc(=O)c3c(C)cc(C)nc3n2C2CC2)cc1 | – | inactive: 40.1%
CN1OC(COC(=O)c2ccc(Cl)cc2Cl)CC1c1ccccc1 (configuration not stated) | inconclusive: 28.2 µM [inhibitor, partial curve] | –
CC(Sc1ncc(S(=O)(=O)c2ccc(C(C)C)cc2)c(N)n1)C(=O)Nc1ccccc1 (configuration not stated) | – | inactive: -10%
COc1ccc(-c2cn[nH]c2-c2ccc(OCc3ccc(F)cc3)cc2O)cc1OC | inconclusive: 7.94 µM [inhibitor, full curve] | –
CC(C)(C)c1ccc(CN2C3=NCCCN3c3ccccc32)cc1 | – | inactive: 1.26%
CCC(C)C1/C=C\CCCC(=O)N1Cc1ccc(C)cc1 (configuration not stated) | inconclusive: 35.5 µM [inhibitor, single point] | –
CCCN(CCC)Cc1c(C(=O)N/N=C/c2c[nH]c3ccccc23)nnn1-c1nonc1N | inconclusive: 35.5 µM [inhibitor, partial curve] | –
CC(O)CNC(=O)C1CCN(Cc2ccc(OCc3ccccc3)cc2)CC1 (configuration not stated) | inconclusive: 22.4 µM [inhibitor, partial curve] | –
CC(C)c1ccc(N=c2c([N+](=O)[O-])nn(-c3ccc4c(c3)OCCO4)n2O)cc1 | inconclusive: 22.4 µM [inhibitor, partial curve] | –
Cc1ccccc1Cn1cnc2c([N+](=O)[O-])c(C)c(C)cc21 | inconclusive: 31.6 µM [inhibitor, partial curve] | –
C=CCN(C(=O)C1=NN(C2CCS(=O)(=O)C2)C(=O)CC1)c1nc(-c2ccc([N+](=O)[O-])cc2)cs1 (configuration not stated) | – | inactive: -19.1%
Cc1nc2ccc(NC(=O)c3ccccc3)cc2s1 | – | inactive: -8.77%
CCC(C)n1c(=N)c(S(=O)(=O)c2ccc(C)cc2)cc2c(=O)n3cc(C)ccc3nc21 (configuration not stated) | – | inactive: -0.465%
CC(C)(C)c1ccc(/C=N/NC(=O)C2CCCC2)cc1 | inconclusive: 31.6 µM [inhibitor, single point] | –
Cc1occc1C(=O)O/N=C(\N)c1ccc(Cl)cc1 | – | inactive: -13%
CCC1=NN2C(=N)/C(=C\c3cccn3-c3ccc(C)c(C)c3)C(=O)N=C2S1 | inconclusive: 31.6 µM [inhibitor, partial curve] | –
Cc1ccc(C(=O)NC(C)c2ccccc2)cc1Br (configuration not stated) | inconclusive: 28.2 µM [inhibitor, partial curve] | –
O=C(CCl)N=c1sccn1Cc1ccc(Cl)cc1Cl | inconclusive: 31.6 µM [inhibitor, partial curve] | –
CC1=CC(=C2C(=O)c3ccccc3C2=O)C=C(C)N1Cc1ccco1 | inconclusive: 39.8 µM [inhibitor, partial curve] | –

SMILES | Potency | activity change, negative = displacement
CC(=O)Oc1ccc(Nc2ccccc2)cc1 | inconclusive: 44.7 µM [inhibitor, single point] | –
Cc1ccc(NC(=O)c2cccs2)cc1S(=O)(=O)Nc1cccc(Cl)c1 | inconclusive: 39.8 µM [inhibitor, single point] | –
COc1ccc(CNC(=O)C(c2ccncc2)N(C(=O)Cc2cccs2)c2ccc(C)cc2)cc1 (configuration not stated) | inconclusive: 31.6 µM [inhibitor, single point] | –
Fc1ccc(CNc2cnccn2)cc1 | inconclusive: 35.5 µM [inhibitor, single point] | –
O=C(Nc1cccc(Cl)c1)C1COc2ccccc2O1 (configuration not stated) | inconclusive: 14.1 µM [inhibitor, partial curve] | –
CCSc1ccc(-c2ccco2)nn1 | inconclusive: 31.6 µM [inhibitor, partial curve] | –
CCCCCCN(C(=O)CCCCCN1C(=O)NC(c2ccc([N+](=O)[O-])cc2)C(C(=O)OCc2ccccc2)=C1C)C(C(=O)NCCCC)c1ccc(OCC(=O)OC)c(C(=O)OC)c1 (configuration not stated) | inconclusive: 14.1 µM [inhibitor, partial curve] | –
CC1CCCCN1S(=O)(=O)c1ccc(C(=O)N(CCCN(C)C)c2nc3cc4c(cc3s2)OCO4)cc1 (configuration not stated) | inconclusive: 28.2 µM [inhibitor, partial curve] | –
CC(NC(=S)NCCCN1CCOCC1)C1CC2CCC1C2 (configuration not stated) | inconclusive: 35.5 µM [inhibitor, partial curve] | –
Oc1c(Cl)cc(Cl)cc1C=Nc1ccc(N2CCOCC2)cc1 | – | inactive: 6.17%
Cc1c(C(=O)Nc2ccc3oc(-c4cccnc4)nc3c2)oc2ccccc12 | inconclusive: 6.31 µM [inhibitor, single point] | –
Cc1ccc(-n2ncc(C(=O)N3CCN(C4CCCCC4)CC3)c2C2CCN(C(=O)OC(C)(C)C)CC2)cc1C | inconclusive: 56.2 µM [inhibitor, single point] | –
O=C(c1ccco1)N1CCN=C1SCc1ccccc1Cl | inconclusive: 35.5 µM [inhibitor, single point] | –
Cc1cc(C)n(CC2CC(=O)N(c3ccc(F)c(Cl)c3)C2=O)n1 (configuration not stated) | inconclusive: 44.7 µM [inhibitor, partial curve] | –
CCN(CC)S(=O)(=O)c1cc(NS(=O)(=O)c2c(Cl)cccc2Cl)ccc1C | inconclusive: 25.1 µM [inhibitor, single point] | –
O=C(COC(=O)c1ccc([N+](=O)[O-])o1)Nc1cccc(S(=O)(=O)N2CCCCC2)c1 | inconclusive: 11.2 µM [inhibitor, partial curve] | –
O=C(Nc1nnc(-c2cccs2)o1)c1cc(-c2ccccc2)nc2ccccc12 | – | inactive: 8.05%
COc1ccc(OC)c(N(C(=O)c2ccco2)C(C(=O)NC2CCCC2)c2cc(OC)c(OC)c(OC)c2)c1 (configuration not stated) | – | inactive: 7.18%
CCc1cccc(NC(=O)C2CCCN2S(=O)(=O)c2cccc3cccnc23)c1 (configuration not stated) | inconclusive: 35.5 µM [inhibitor, single point] | –
Cc1nc(NC2=NCN(CCCN3CCOCC3)CN2)nc2c(C)cccc12 | – | inactive: -9.37%
Cc1cc2cc(CNC(=O)c3cc4ccccc4o3)ccc2n1C | inconclusive: 10 µM [inhibitor, partial curve] | –

Reference: PubChem BioAssay AID485281 (National Center for Advancing Translational Sciences (NCATS), 2010)
